Experimental data from PubChem BioAssay AID686979 (National Center for Advancing Translational Sciences (NCATS), 2013).
Among all 420,000 compounds or so, about 50,000 (12%) were called active. The shares of active, inactive and inconclusive entries below differ from those in the screen. The call rests on the fitted dose curve; in most records, active means well fitted inhibition curve with a large enough effect; inconclusive means small, poorly fitted or top-dose-only effect; inactive means flat fitted curve, though single readings scatter. No potency is given beside an inconclusive call; the fits are too rough.

test: qHTS for Inhibitors of human tyrosyl-DNA phosphodiesterase 1 (TDP1): qHTS in cells in presence of CPT; conditions: chicken DT40 Tdp1-/-;hTDP1 cells + 20 nM CPT, ATP luminescence, 48 h; activity change, negative = growth inhibition: at 46.2 µM (top of the series); further: nearly all actives have a fitted effect of over 55% in size
In short: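 Cell growth measured by CellTiter-Glo luminescence after a minimum 48 h, 37 C compound exposure with 20 nM CPT in Tdp1-knockout DT40 cells stably expressing hTDP1, seeded 400/well; qHTS titration format.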
On the % scale 0 is the no-effect control and ±100 the full control effect; potency means the concentration at half of the fitted maximal effect; tags describe the fitted curve by direction and shape.

Row | Compound | Potency | activity change, negative = growth inhibition
1 | O=C(/C=C/c1ccc(Cl)cc1Cl)N1CCN(c2ccc([N+](=O)[O-])c(N3CCOCC3)c2)CC1 | inconclusive [inhibitor, single point] | 
2 | CSc1cccc(NC(=O)CC(C)n2ccnc2)c1 (stereo unspecified) |  | inactive: -1.78%
3 | CCN(CC)S(=O)(=O)c1cc(NC(=O)CCNC(=O)c2ccco2)ccc1C | inconclusive [inhibitor, single point] | 
4 | Brc1ccc(OCCCOc2cccc3cccnc23)cc1 |  | inactive: -0.659%
5 | CNC(=S)N1CCC(NC(=O)C23CC4CC(CC(C4)C2)C3)CC1 | inconclusive [inhibitor, single point] | 
6 | O=C1NN=C(c2ccc(Cl)cc2)CC1c1cccc(Cl)c1 (stereo unspecified) | active: 29.1 µM | 
7 | CC(C(=O)OCC(=O)Nc1ccc(S(N)(=O)=O)cc1)N1C(=O)c2ccccc2C1=O (stereo unspecified) |  | inactive: -4.21%
8 | Cc1ccc(Cn2c(C(=O)O)c(CNCc3cccs3)c3ccc(C)cc32)cc1 | active: 14.6 µM | 
9 | COc1cc(/C=C/C(=O)c2ccc(F)cc2)cc(OC)c1OC | inconclusive [inhibitor, single point] | 
10 | COc1cccc(C(=O)NCCSCc2c(F)cccc2Cl)c1 |  | inactive: 1.53%
11 | Cc1ccc(S(=O)(=O)Nc2ccnc3ccccc23)cc1 | inconclusive [inhibitor, partial curve] | 
12 | CCOC(=O)C1=C(COC(=O)c2ccc(OC)c(OC)c2OC)NC(=O)NC1C (stereo unspecified) | inconclusive [inhibitor, partial curve, poor fit] | 
13 | CC1=C(C(N)=O)C(c2ccc(F)cc2)n2nc(-c3ccc(N(C)C)cc3)nc2N1 (stereo unspecified) |  | inactive: 0.427%
14 | COc1cccc(CC(NC(C)=O)C(=O)NC2CCN(C(=O)C3CC3)CC2)c1OC (stereo unspecified) |  | inactive: -4.3%
15 | CCN(C(=O)c1cc(S(=O)(=O)N2CCc3ccccc32)cn1C)c1cccc(C)c1 | inconclusive [inhibitor, single point] | 
16 | CC(=O)N(c1ccc2oc(=O)sc2c1)S(=O)(=O)c1ccc(C(=O)O)cc1 |  | inactive: 1.02%
17 | CCOC(=O)c1cnc2ccc(C(=O)OC)cc2c1NCCc1ccc(OC)c(OC)c1 | inconclusive [inhibitor, partial curve, poor fit] | 
18 | CCN(Cc1ccncc1)Cc1ccc2c(c1)CN(C(=O)c1ccccc1)CCO2 |  | inactive: 5.69% [at 9.04 µM]
19 | CCOC(=O)CNS(=O)(=O)c1cc(-c2n[nH]c(=O)c3ccccc23)ccc1C | inconclusive [inhibitor, partial curve] | 
20 | CNS(=O)(=O)c1cn(CC(=O)Nc2ccc(C)c(N(C)C)c2)cc1S(=O)(=O)NC |  | inactive: -22.4%
21 | COc1ccc(-c2nc(C#N)c(NCc3ccc(C)cc3)o2)cc1OC | inconclusive [inhibitor, single point] | 
22 | O=C(CCN1C(=O)c2ccccc2C1=O)N1CCN(c2ccccc2)CC1 |  | inactive: 1.52%
23 | O=C(Nc1ccc(-c2nc3cccnc3s2)cc1)c1ccco1 | inconclusive [inhibitor, single point] | 
24 | CC1Sc2ccc(S(=O)(=O)CCC(=O)N(C)Cc3ccco3)cc2NC1=O (stereo unspecified) | inconclusive [inhibitor, single point] | 

Row | Compound | Potency | activity change, negative = growth inhibition
25 | c1ccc(-c2csc(Nc3ccc4c(c3)OCO4)n2)cc1 | inconclusive [inhibitor, single point] | 
26 | O=[N+]([O-])c1ccccc1Nc1nc(-c2cccnc2)cs1 | inconclusive [inhibitor, single point] | 
27 | Cc1ccc(NC(=O)COC(=O)CNC(=O)c2cccc([N+](=O)[O-])c2)cc1S(=O)(=O)N1CCCCCC1 |  | inactive: 20.2%
28 | CS(=O)(=O)N1CCC(C(=O)Nc2cc(C(F)(F)F)ccc2Cl)CC1 |  | inactive: -3.23%
29 | CCN(CC)CCNC(=O)C1CCC(=O)N(c2ccc(OC)cc2)C1c1ccc(F)cc1 (stereo unspecified) |  | inactive: -14.2%
30 | COc1ccc2cc(-c3[nH]ncc3CN3C[C@@H]4CCC[C@H]3C4)ccc2c1 | inconclusive [inhibitor, single point] | 
31 | Cc1ccc(-c2nn(CC(=O)NC3CCCCC3)c3c2cnc2ccccc23)cc1 | inconclusive [inhibitor, single point] | 
32 | O=C(O)C1Cn2c(nc3c(c2=O)C2(CCCC2)Cc2ccccc2-3)S1 (stereo unspecified) |  | inactive: 9.76%
33 | CC1CCCC(C)N1/N=C/c1ccc(C#N)cc1 (stereo unspecified) |  | inactive: -6.4%
34 | O=C(CCCN1C(=O)/C(=C/c2ccc(F)cc2)SC1=S)NC1CCS(=O)(=O)C1 (stereo unspecified) | active: 18.4 µM | 
35 | CCCCn1nc2cc(C(=O)N[C@H](C)C3CCCCC3)ccc2c1OCC | inconclusive [inhibitor, single point] | 
36 | CCCCN(C)C(=O)c1cc2c(Cl)nc3ccccc3c2s1 | inconclusive [inhibitor, single point] | 
37 | Cc1ccc(C=Nc2ccccc2C(=O)Nc2ccccc2)cc1 | inconclusive [inhibitor, single point] | 
38 | CC(=O)c1ccc(S(=O)(=O)Nc2ccc(C(=O)NCC(c3cccs3)N3CCOCC3)cc2)cc1 (stereo unspecified) | inconclusive [inhibitor, single point] | 
39 | CCOc1ccccc1NC(=O)CN1c2cccc3cccc(c23)S1(=O)=O |  | inactive: -26.6%
40 | O=C(Nc1cccc(C(F)(F)F)c1)C1Cc2c(-c3ccccc3)ccnc2O1 (stereo unspecified) | inconclusive [inhibitor, single point] | 
41 | Cc1ccc([N+](=O)[O-])cc1NC(=O)C(Sc1ccccc1)c1ccccc1 (stereo unspecified) | inconclusive [inhibitor, single point] | 
42 | CCCCn1c(N)c(N(CCC(C)C)C(=O)COC(=O)Cc2ccc(Cl)cc2)c(=O)[nH]c1=O |  | inconclusive: -35% [inhibitor]
43 | Cc1ccc2c(c1)-c1c(ssc1=S)C(C)(C)N2C(=O)CN1C(=O)c2ccccc2C1=O | inconclusive [inhibitor, single point] | 
44 | Oc1ccc(C(O)CNCCCCCCNCC(O)c2ccc(O)c(O)c2)cc1O (stereo unspecified) | inconclusive [inhibitor, single point] | 
45 | CS(=O)(=O)N(CC(=O)Nc1ccccc1C(=O)NCCc1ccccc1)c1ccc2c(c1)OCCO2 | active: 29.1 µM | 
46 | Cc1ccc(Cl)cc1N1CCN(C(=O)c2cccn2-c2nnc(N3CCCC3)s2)CC1 | active: 11.6 µM | 
47 | CCOc1ccc(/C=N/n2c(COc3ccccc3)n[nH]c2=S)cc1OC | inconclusive [inhibitor, single point] | 
48 | CN1CCCCC1(C)C(=O)NCc1ccc(C(C)(C)C)cc1 (stereo unspecified) |  | inactive: -17.1%

Row | Compound | Potency | activity change, negative = growth inhibition
49 | Cc1ccc(-c2cc(C(=O)N3CCN(C4CCS(=O)(=O)C4)CC3)c3ccccc3n2)cc1 (stereo unspecified) | active: 13 µM | 
50 | O=C(Nc1ccc(-c2nc3ccccc3o2)cc1)c1ccc2c(c1)OCO2 | inconclusive [inhibitor, partial curve] | 
51 | O=C(/C=C/c1ccccc1)CC(=O)c1ccccc1O | inconclusive [inhibitor, single point] | 
52 | CCOC(=O)N1CCN(C(=O)c2cc(COc3c(F)cccc3F)on2)CC1 | inconclusive [inhibitor, single point] | 
53 | Cc1ccc2ccccc2c1C(O)c1ncc(-c2ccccc2Cl)[nH]1 (stereo unspecified) | active: 25.9 µM | 
54 | Cc1ccc(C)c(N(C(=O)c2snc(C(N)=O)c2N)C(C(=O)NCC2CCCO2)c2ccc(C)o2)c1 (stereo unspecified) | active: 16.4 µM | 
55 | Cc1nc2c(cc1N)nc(C)n2Cc1ccccc1 |  | inactive: -10.8%
56 | CC(OC(=O)Cc1c[nH]c2ccccc12)C(=O)N(C)c1ccccc1 (stereo unspecified) | inconclusive [inhibitor, single point] | 
57 | Cc1ccc(-n2c(SCC(=O)NCc3cccs3)nnc2-c2ccoc2C)cc1 | inconclusive [inhibitor, single point] | 
58 | COc1cccc(CNC(=O)c2c(OC)cc(=O)n3c2CCN(C(=O)C2=C(C)OCCO2)CC3)c1 |  | inactive: 6.61%
59 | COCCNC(=O)C(=O)NCC(c1ccc2c(c1)OCO2)N1CCN(c2ccc(F)cc2)CC1 (stereo unspecified) |  | inactive: -27.4%
60 | CCC[C@H]1CN(c2ccc(Br)cc2)C(=O)[C@@H]1CC(=O)Nc1ccc(OC)cc1 | inconclusive [inhibitor, single point] | 
61 | CCCOc1ccc2oc(=O)c3c(c2c1)CCCN3C(=O)CN(C)Cc1ccccc1 | inconclusive [inhibitor, single point] | 
62 | CCCCOC(=O)c1[nH]c2c(c1C)C(=O)CC(c1cc(OC)c(OC)c(OC)c1)C2 (stereo unspecified) | active: 6.51 µM | 
63 | COc1ccc(-c2noc(CCCC(=O)NC3CCCC3)n2)cc1 | active: 16.4 µM | 
64 | O=C(CN1C(=O)C2CCCCC2C1=O)OCC(=O)c1ccc(F)cc1 (stereo unspecified) |  | inactive: 4.71%
65 | CCCN(CC(=O)Nc1ccc(F)c(F)c1F)C(=O)C1CC(=O)N(Cc2ccccc2)C1 (stereo unspecified) |  | inactive: -11.8%
66 | Cc1c(C(=O)NCc2ccc3c(c2)OCO3)sc(=O)n1Cc1cccc(F)c1 | inconclusive [inhibitor, single point] | 
67 | N#Cc1c(-c2ccc3c(c2)OCO3)ccn2nc(-c3cccc(C(F)(F)F)c3)nc12 | inconclusive [inhibitor, partial curve] | 
68 | CCCCOc1ccccc1C(=O)Nc1nonc1-c1ccccc1 | inconclusive [inhibitor, single point] | 
69 | O=C(NCCCO)c1cc([N+](=O)[O-])cc2c1C=Cc1ccccc1O2 | inconclusive [inhibitor, single point] | 
70 | Cc1cccc(N(C)c2nc3ccc(C)cc3n3cnnc23)c1 | inconclusive [inhibitor, single point] | 
71 | CCCc1ccc(OCC(=O)Nc2sc3c(c2C(=O)OC)CCCCC3)cc1 |  | inactive: 4.32%
